Data on 51 molecules can be found in article PMC12040169 (PLOS Biology, 2025).

The other results are listed elsewhere or left out.

The assay has as its system T1, C. trachomatis L2/434/Bu expressing GFP (CTL2-GFP).
T1 construct: L2/434/Bu GFP intracellular growth in HeLa cells
The arrangement: species or system HeLa; C. trachomatis total inclusion area by high-content imaging, normalised to DMSO. The conditions noted are these: total inclusion area; 28.5 h, 10 µM; inhibitor. The method in brief:
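Bulk GFP and resorufin signals were read first. Wells were then fixed, stained with Hoechst and imaged to detect GFP inclusions and host nuclei. MICs followed the previously described calculation.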
Take `O=C(CSCCO)Nc1ccc(N2CCOCC2)cc1` [CBK269616]: the “% of control remaining” value amounted to 101.909.

With `COc1ccc([C@@]23CC[C@@H](NC(=O)Nc4c(F)cc(F)cc4Cl)C[C@@H]2N(C)CC3)cc1OC` [CBK073740T], the “% of control remaining” value amounted to 88.9697.

Turning to `CCc1ccc(CNC(=O)NC2CCCc3c2cnn3CCO)s1` (stereo not drawn) [CBK305747], the “% of control remaining” value was 70.2103. To `COCCn1c(SC(C)C(=O)OC)nc2ccc(Br)cc2c1=O` (stereo not drawn) [CBK306479] belongs 69.5417; to `COCCNC(=O)c1cc(-c2cc(C)oc2C)nc2c1cnn2C(C)C` [CBK305052], 116; to `COc1ccc(C(=O)N(C)Cc2cnn(C)c2)cc1Br` [CBK305149], 32.7473. To `Cc1ccc(S(=O)(=O)NCC(=O)O)c2nsnc12` [CBK261140] belongs 97.8562; to `CC(C)(C)OC(=O)N1CCC2(CC1)NC(=O)c1cc(-c3cccnc3)ccc1O2` [CBK083517], 64.4923; to `COc1ccc(OC)c(C(=O)N2CCNC(=O)C2Cc2ccccc2-c2ccc(F)cc2)c1` (stereo not drawn) [CBK285829], 105.541. For the molecule `c1ccc2cc(-c3cc(Nc4ccc(N5CCOCC5)cc4)ncn3)ccc2c1` [CBK090929], the “% of control remaining” value came to 130.498. Take `O=C(NC(c1ccccc1)c1ccccn1)c1ccco1` (stereo not drawn) [CBK144109]: the “% of control remaining” value worked out at 83.2245.

`O=C(CSCc1nc2ccccc2[nH]1)Nc1ccc2ccccc2c1` [CBK263262]: the “% of control remaining” value is reported as 86.1027. The value for `Cc1nn(C(C)C)c(C)c1CN(Cc1ccccn1)Cc1ccco1` [CBK283221] was 61.7463; that for `CCNC(=O)C1(Cc2ccccc2-c2ccccc2)CCN(C(=O)c2ccccc2)CC1` [CBK285700] was 100.63. As to `COc1cc(OC)c(CN(C)CCN(C)C)cc1Br` [CBK021255], the “% of control remaining” value came out at 70.4917. The value for `O=c1cc(O)c2c(=O)n(-c3ccccc3)c(-c3ccccc3)cc2o1` [CBK006116] was 96.3799; that for `NC(=O)CN1C(=O)CO[C@H]2CN(Cc3ccccc3F)C[C@H]21` [CBK289693] was 87.3963. To `Cc1ccc(S(=O)(=O)Nn2cnnc2)cc1` [CBK027263] belongs 46.8794. Regarding `CC1=C(C)CC(C(=O)NC(C)CCc2ccccc2)C(C(=O)O)C1` (stereo not drawn) [CBK265452], the “% of control remaining” value is 101.79. The value for `O=c1c2ccccc2nc(CSc2ncnc3[nH]cnc23)n1-c1ccc(Cl)c(Cl)c1` [CBK217854] was 100.866; that for `CCOc1ccc2[nH]c(=O)c(/C=C3\SC(=S)N(CCC(=O)O)C3=O)cc2c1` [CBK265213] was 83.7784. `Cn1c(SCC(=O)Nc2ccnc3ccccc23)nnc1-c1ccncc1` [CBK267867]: the “% of control remaining” value is 82.907. For the molecule `COc1nnc(-c2ccc(N3CCOCC3)c(NC(=O)COc3cccc(C)c3)c2)c2ccccc12` [CBK266207], the “% of control remaining” value turned out to be 115.14. Consider `CNC(=O)N(O)C1N(NC(=O)Nc2ccccc2)C(=S)SC1(C)C` (stereo not drawn) [CBK261005], for which the “% of control remaining” value is on record as 103.564. Regarding `O=C(O)C1C2C=CC(O2)C1C(=O)Nc1ccc2c(c1)OCO2` (stereo not drawn) [CBK265475], the “% of control remaining” value was 60.9969. Regarding `CCc1c(C)nc2ccccc2c1SC[C@H](NC(C)=O)C(=O)O` [CBK153459T], the “% of control remaining” value was 77.7387.

In the case of `CCS(=O)(=O)c1ccc2cc(C(=O)O)[nH]c2c1` [CBK286951], the “% of control remaining” value worked out at 115.004. The value for `CN(C)c1cccc(Oc2nc3c(c(=O)n(C)c(=O)n3C)n2C)c1` [CBK270109] was 108.502; that for `Cc1csc2ncc(C(=O)Nc3ccccc3C(F)(F)F)c(=O)n12` [CBK287456] was 69.3263; that for `Cn1cnc(C(=O)N2CC[C@H]3NC(=O)c4ccccc4OCCCCC[C@H]3C2)c1` [CBK292031] was 93.3306. As for `COc1ccc(N2CCN(CCNC(=O)Nc3ccc(Cl)cc3)CC2)cc1` [CBK268725], the “% of control remaining” value is 85.7713. For the molecule `Cc1cccnc1NS(=O)(=O)c1cccs1` [CBK299775], the “% of control remaining” value amounted to 84.8446. In the case of `CN1CC(=O)N2CCOC(C2)c2cccc(n2)NC(=O)C/C=C/CC2(CCNCC2)C1=O` (stereo not drawn) [CBK292053], the “% of control remaining” value turned out to be 137.31. As for `O=C1NC(c2ccccc2)=NC1(NS(=O)(=O)c1ccccc1)C(F)(F)F` (stereo not drawn) [CBK267474], the “% of control remaining” value is 86.8158. Regarding `CC1(C)CCN(Cc2nnnn2-c2ccc(S(C)(=O)=O)cc2)C1` [CBK306179], the “% of control remaining” value is given as 41.4298. To `CCCC(=O)N1CCC(C(=O)Nc2ccccc2F)CC1` [CBK304346] belongs 57.6851.

As to `CS(=O)(=O)c1ccc(CNC(=O)C2(c3ccccc3)CCCC2)cc1` [CBK161524], the “% of control remaining” value worked out at 103.66. For `CC(C)c1cc(C(=O)N2CCCCCC2c2cnn(C)c2)no1` (stereo not drawn) [CBK284971], the “% of control remaining” value is given as 76.5843.

Regarding `CN1CCN(c2ccc([N+](=O)[O-])c(NCCCO)c2)CC1` [CBK261846C], the “% of control remaining” value was 109.741.

With `CC(C)NC(=O)C1(Cc2ccccc2-c2ccncc2)CCOCC1` [CBK284786], the “% of control remaining” value turned out to be 114.644.

Regarding `CCOC(=O)C1(Cc2ccccc2-c2ccncc2)CCNCC1` [CBK282297], the “% of control remaining” value is given as 100.19.

On to `Cc1cc(C(=O)O)ccc1NC(=O)CCCC(=O)O` [CBK267917], for which the “% of control remaining” value stood at 101.959.

For `Cc1ccc(CN2Cc3cc4ccccc4nc3OC(C)C2=O)o1` (stereo not drawn) [CBK284004], the “% of control remaining” value came to 100.163.

As to `CCCCN(CC(F)(F)F)C(=O)Cc1csc(NC(=O)C(C)C)n1` [CBK306217], the “% of control remaining” value is recorded as 38.4533. To `O=C(Nc1ccccc1Cl)c1ccc(NCCN2C(=O)c3ccccc3C2=O)c([N+](=O)[O-])c1` [CBK267149] belongs 113.576. For `CCC(=O)N1c2ccc(C(O)CN3CCSCC3)cc2CC1C` (stereo not drawn) [CBK283122], the “% of control remaining” value came out at 107.186. To `O=C(O)c1ccccc1-c1ccccc1C(=O)NCCc1ccccc1` [CBK263394] belongs 108.811. Take `Cc1cc(Cl)c(S(=O)(=O)Nc2ccc3c(c2)OCCO3)cc1OCC(=O)NC1CCCCC1` [CBK266786]: the “% of control remaining” value is given as 80.4057. To `CCCc1ccc(N(C)C(=O)c2ccc(OC(F)(F)F)cc2)cc1` [CBK161616] belongs 81.3459; to `COc1ccc(S(=O)(=O)Nc2nnc(C)s2)cc1` [CBK045543], 52.2063. With `Cc1cccc(-c2nnc(-c3cccc(NC(=O)COc4ccccc4)c3)o2)c1` [CBK269659], the “% of control remaining” value was determined as 79.6423.
